# Measurements as given in PubChem BioAssay (Tox21).
# “And” between values parts separate entries of the source, which are not always exact repeats. Equal entries are not always repeated. The shares of active, inactive and inconclusive entries below differ from those in the screen. For some assays here: Where the call is inconclusive, the potency comes from a doubtful curve fit. A structure can be active in one record and inactive in another. The source made the active and inactive calls. Unless noted, calls follow the shape of the dose curve; as a rule, active = well fitted curve in the direction sought with a large enough effect in the repeat runs; inconclusive = weak or mixed curves; inactive = no such curve, though single readings can be large; an effect the other way counts as inactive or inconclusive.
# Columns and labels:
# [1] = qHTS RealTime-Glo MT Cell Viability Assay in HEK293 cells - 0 hour (AID 1224880); also: nearly all actives have a fitted effect of over 45% in size; also: potency is read from the fitted curve at half-maximal effect
# Summary of the method: (§1)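 Luminescence readout at each listed time point; HEK293, 600 cells/well, RealTime-Glo MT reagent added with cells; compounds pinned (23 nL in DMSO) after 5 h at 37 C; continuous culture at 37 C.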
# [2] = qHTS RealTime-Glo MT Cell Viability Assay in HEK293 cells - 8 hour (AID 1224887); also: nearly all actives have a fitted effect of over 50% in size; also: potency is read from the fitted curve at half-maximal effect
# Summary of the method: as §1
# [3] = qHTS assay to identify small molecule antagonists of the estrogen receptor alpha (ER-alpha) signaling pathway using the BG1 cell line in the presence of 0.1 nM 17-beta-estradiol - cell viability counter screen (AID 1259241); also: nearly all actives have a fitted effect of over 40% in size; also: potency is read from the fitted curve at half-maximal effect
# Summary of the method: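 Viability in VM7Luc4E2 cells after 22 hr compound exposure under 0.1 nM 17beta-estradiol stimulation, by CellTiter-Fluor.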
# [4] = qHTS assay to identify small molecule antagonists of the androgen receptor (AR) signaling pathway using the MDA cell line in the presence of 0.5 nM R1881 - cell viability counter screen (AID 1259242); also: potency is read from the fitted curve at half-maximal effect; nearly all actives have a fitted effect of over 45% in size
# Summary of the method: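 Live-cell protease fluorescence, CellTiter-Fluor, 30 min at 37C. Cells: MDA-kb2, 3,000/well, preincubated 5 hr. Compounds plus 0.5 nM R1881 final, 16 hr, 37C, 0% CO2.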
# [5] = qHTS assay to identify small molecule HDAC inhibitors - cell viability counter screen (AID 1259365); also: potency is read from the fitted curve at half-maximal effect; nearly all actives have a fitted effect of over 50% in size
# Summary of the method: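 Cytotoxicity was gauged in wild-type HCT-116 cells after a brief 2hr treatment with DMSO-dissolved compounds at 37C and 5% CO2, using CellTiter-Glo luminescence developed for 30min at room temperature.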
# [6] = qHTS assay to identify small molecule agonists of the sonic hedgehog signaling (Shh) pathway - cell viability counter screen (AID 1259366); also: potency is read from the fitted curve at half-maximal effect; nearly all actives have a fitted effect of over 50% in size
# Summary of the method: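 Stable Gli1-Luc NIH/3T3 clone, 2,000 cells/well. Compound exposure 24hr at 37C. Read-out: CellTiter-Fluor fluorescence.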
# [7] = qHTS assay to identify small molecule antagonists of the sonic hedgehog signaling (Shh) pathway - cell viability counter screen (AID 1259367); also: nearly all actives have a fitted effect of over 55% in size; also: potency is read from the fitted curve at half-maximal effect
# Summary of the method: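 Tox21 library chemicals were tested on a Gli1-Luc NIH/3T3 clone (2,000 cells/well) stimulated by conditioned medium; viability was quantified as fluorescence from CellTiter-Fluor reagent added at 23 hr.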
# [8] = A CellTox Green Cytotoxicity Assay to monitor cytotoxicity in HepG2 cells - 8 hour (AID 1224890); also: potency is read from the fitted curve at half-maximal effect; nearly all actives have a fitted effect of over 45% in size
# Summary of the method: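 HepG2, 600 cells/well premixed w/ CellTox Green; 5 h settle, 37 C/5% CO2; pintool cpd add (DMSO); 37 C, 40 h; fluorescence read at 0, 8, 16, 24, 32, 40 h.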
# [9] = qHTS RealTime-Glo MT Cell Viability Assay in HepG2 cells - 16 hour (AID 1224885); also: potency is read from the fitted curve at half-maximal effect; nearly all actives have a fitted effect of over 50% in size
# Summary of the method: (§2)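 Luminescence read-out: viable HepG2 cells reduce a prosubstrate to a NanoLuc substrate, giving a signal proportional to live cell number. Reads taken at 0, 8, 16, 24, 32 and 40 h of compound exposure at 37 C.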
# [10] = A CellTox Green Cytotoxicity Assay to monitor cytotoxicity in HEK293 cells - 16 hour (AID 1224888); also: nearly all actives have a fitted effect of over 35% in size
# Summary of the method: (§3)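 Read-out: fluorescence of a cell-impermeant cyanine dye staining DNA of dead cells, proportional to cytotoxicity. HEK293, 600 cells/well with reagent, compound (23 nL DMSO) added after 5 h; reads at 0, 8, 16, 24, 32, 40 h.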
# [11] = molecular target: Estrogen receptor (Homo sapiens) (UniProt P03372); assay: qHTS assay to identify small molecule antagonists of the estrogen receptor alpha (ER-alpha) signaling pathway using the BG1 cell line in the presence of 0.1 nM 17-beta-estradiol (AID 1259244); also: nearly all actives have a fitted effect of over 50% in size; also: potency is read from the fitted curve at half-maximal effect
# Summary of the method: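 Luminescence after ONE-Glo (30 min, room temperature) measured ERE-luciferase activity in VM7Luc4E2 cells treated 22 h with compound and 0.1 nM final 17beta-estradiol as stimulator.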
# [12] = A CellTox Green Cytotoxicity Assay to monitor cytotoxicity in HEK293 cells - 32 hour (AID 1224881); also: nearly all actives have a fitted effect of over 40% in size; also: potency is read from the fitted curve at half-maximal effect
# Summary of the method: as §3
# [13] = qHTS RealTime-Glo MT Cell Viability Assay in HepG2 cells - 0 hour (AID 1224889); also: nearly all actives have a fitted effect of over 50% in size; also: potency is read from the fitted curve at half-maximal effect
# Summary of the method: as §2
# [14] = qHTS assay to identify small molecule HDAC inhibitors (AID 1259364); also: potency is read from the fitted curve at half-maximal effect;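 also: wild-type HCT-116 cells with endogenous class I/II HDAC activity; nearly all actives have a fitted effect of over 45% in size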
# Summary of the method: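 HCT-116 (wild type), 1,500 cells/well, overnight; compound 2 hr 37C 5% CO2; HDAC-Glo I/II reagent 30 min RT; luminescence readout.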
# [15] = qHTS assay to identify small molecule phospholipidosis (PLD) inducers (AID 1259344; active = well fitted curve in the direction sought with a large enough effect; inconclusive = small, poorly fitted or top-dose-only effect, or another doubt; inactive = no such curve, though single readings can be large; an effect the other way counts as inactive or inconclusive; also: potency is read from the fitted curve at half-maximal effect); conditions: HepG2 phospholipidosis, LipidTOX Red imaging, 24 h; series mostly up to 38.3 µM
# Summary of the method: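 Image-based: LipidTOX Red pit count/intensity per well and per cell; HepG2, 24 h compound at 37 C, PFA fixation, Hoechst counterstain.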
# [16] = molecular target: Androgen receptor (Homo sapiens) (UniProt P10275); assay: qHTS assay to identify small molecule antagonists of the androgen receptor (AR) signaling pathway using the MDA cell line in the presence of 0.5 nM R1881 (AID 1259243)
# Summary of the method: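 MDA-kb2, MMTV-luc (AR/GR elements); 3,000 cells/well; cpd + 0.5 nM R1881 final; 16 hr 37C, 0% CO2; ONE-Glo 30 min RT; luminescence.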
# Tags tell the direction and shape of the fitted curve.
# Chain of UniProt P03372 (P03372 whole entry, looked up): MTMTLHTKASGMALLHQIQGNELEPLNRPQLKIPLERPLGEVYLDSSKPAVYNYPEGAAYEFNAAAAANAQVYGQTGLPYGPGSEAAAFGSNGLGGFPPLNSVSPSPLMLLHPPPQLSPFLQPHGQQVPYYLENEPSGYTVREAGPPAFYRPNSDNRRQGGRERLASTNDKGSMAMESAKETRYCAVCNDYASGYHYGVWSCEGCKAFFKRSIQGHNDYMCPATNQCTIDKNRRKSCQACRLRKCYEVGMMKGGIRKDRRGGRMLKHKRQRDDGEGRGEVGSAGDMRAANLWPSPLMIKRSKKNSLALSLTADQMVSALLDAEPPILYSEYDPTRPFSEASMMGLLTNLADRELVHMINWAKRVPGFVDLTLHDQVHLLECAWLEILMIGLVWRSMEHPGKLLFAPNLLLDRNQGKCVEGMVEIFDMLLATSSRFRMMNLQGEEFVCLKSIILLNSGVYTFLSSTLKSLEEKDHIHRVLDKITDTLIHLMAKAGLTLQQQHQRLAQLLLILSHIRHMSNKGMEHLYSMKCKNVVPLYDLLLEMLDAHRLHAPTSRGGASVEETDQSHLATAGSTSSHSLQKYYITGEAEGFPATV
# Chain of UniProt P10275 (P10275 whole entry, looked up): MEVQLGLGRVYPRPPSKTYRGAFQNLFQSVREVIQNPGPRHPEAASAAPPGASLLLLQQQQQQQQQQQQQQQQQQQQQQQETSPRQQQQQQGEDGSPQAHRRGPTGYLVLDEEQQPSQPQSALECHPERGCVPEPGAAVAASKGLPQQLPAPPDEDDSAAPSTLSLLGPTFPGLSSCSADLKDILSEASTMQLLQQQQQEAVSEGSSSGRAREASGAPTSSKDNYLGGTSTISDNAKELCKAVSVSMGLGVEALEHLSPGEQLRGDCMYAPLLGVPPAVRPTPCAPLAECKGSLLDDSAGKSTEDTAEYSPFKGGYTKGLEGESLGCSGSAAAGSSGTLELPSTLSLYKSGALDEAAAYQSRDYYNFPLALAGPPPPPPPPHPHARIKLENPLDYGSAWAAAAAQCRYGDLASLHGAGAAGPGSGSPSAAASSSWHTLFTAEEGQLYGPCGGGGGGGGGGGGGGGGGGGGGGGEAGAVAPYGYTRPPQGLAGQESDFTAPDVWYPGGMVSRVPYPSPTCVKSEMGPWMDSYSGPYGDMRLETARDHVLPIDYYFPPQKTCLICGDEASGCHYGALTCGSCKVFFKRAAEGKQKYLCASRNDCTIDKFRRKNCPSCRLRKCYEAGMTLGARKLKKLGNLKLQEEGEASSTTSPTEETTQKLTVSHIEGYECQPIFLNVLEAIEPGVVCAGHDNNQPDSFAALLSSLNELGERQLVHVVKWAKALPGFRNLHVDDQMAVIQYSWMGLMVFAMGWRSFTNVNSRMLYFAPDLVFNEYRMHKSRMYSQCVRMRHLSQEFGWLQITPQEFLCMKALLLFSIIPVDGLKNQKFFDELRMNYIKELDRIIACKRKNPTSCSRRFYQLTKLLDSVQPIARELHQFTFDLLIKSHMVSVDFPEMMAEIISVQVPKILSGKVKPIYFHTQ
structure (smiles),measurement,setting,value
Cc1ccc(N=Nc2c(O)ccc3ccccc23)c(C)c1,Potency,[1],"inconclusive: 23.9 µM [falling, partial curve, poor fit]"
same,Potency,[2],"inconclusive: 19 µM [cytotoxic, partial curve]"
same,Potency,[3],"inconclusive: 6.68 µM [cytotoxic, partial curve]"
same,Potency,[4],"inconclusive: 21.1 µM [cytotoxic, partial curve]"
same,Potency,[5],"inconclusive: 33.5 µM [cytotoxic, partial curve, poor fit]"
same,Potency,[6],"inconclusive: 10.6 µM [cytotoxic, partial curve]"
same,Potency,[7],"inconclusive: 29.8 µM [cytotoxic, partial curve, poor fit]"
Cc1cc(C)c(C=O)c(C)c1,Potency,[1],"inconclusive: 49 µM [rising, partial curve, poor fit]"
same,Potency,[2],inactive
same,Potency,[8],"inconclusive: 0.49 µM [activator, single point]"
Oc1ccc(C2(c3ccc(O)c(C4CCCCC4)c3)CCCCC2)cc1C1CCCCC1,Potency,[1],active: 49 µM
same,Potency,[9],active: 38.9 µM
same,Potency,[10],inactive
same,Potency,[8],"inconclusive: 54.9 µM [activator, single point]"
same,Potency,[4],active: 43.3 µM
same,Potency,[7],active: 21.7 µM
CC(C)CC(=O)O,Potency,[1],inactive
same,Potency,[11],inactive
Cc1cccc(C)c1NC(=O)CN1CCCCCC1,Potency,[12],inactive
O=C(O)c1ccc(C(=O)O)c(C(=O)O)c1,Potency,[1],inactive
same,Potency,[3],inactive
CCN(CC)CC(=O)OCC(=O)[C@@]1(O)CC[C@H]2[C@@H]3CCC4=CC(=O)CC[C@]4(C)[C@H]3[C@@H](O)C[C@@]21C,Potency,[1],active: 1.9 µM
same,Potency,[13],active: 1.07 µM
O=C(NS(=O)(=O)/C=C/c1cccs1)c1ccc(F)cc1Br,Potency,[1],active: 19.5 µM
same,Potency,[13],active: 15.5 µM
Cc1ccc(Cl)cc1Cl,Potency,[1],"inconclusive: 61.6 µM [rising, single point]"
same,Potency,[11],inactive
Cn1cnc2c(=O)[nH]c(N)nc21,Potency,[1],"inconclusive: 55 µM [rising, partial curve, poor fit]"
same,Potency,[14],inactive
O=S1OCCO1,Potency,[1],inactive
same,Potency,[13],inactive
O=S(=O)(O)CCN1CCN(CCO)CC1,Potency,[12],"inconclusive: 60.6 µM [activator, partial curve, poor fit]"
N#CCc1cccc(C(F)(F)F)c1,Potency,[1],inactive
same,Potency,[13],inactive
Nc1ccc(Oc2cccc(Oc3ccc(N)cc3)c2)cc1,Potency,[1],"inconclusive: 61.6 µM [rising, partial curve, poor fit]"
same,Potency,[11],active: 8.63 µM
same,Potency,[7],"inconclusive: 27.3 µM [cytotoxic, single point]"
Cc1ccccc1C(OCCN(C)C)c1ccccc1 (stereo not given),Potency,[1],"inconclusive: 38.9 µM [rising, partial curve, poor fit]"
same,Potency,[15],"inconclusive: 10 µM [activator, partial curve, poor fit] and inconclusive: 17.8 µM [activator, single point]"
same,Potency,[7],inactive
Cc1cccc(NC(=S)N(C)C)c1,Potency,[12],inactive
CCc1c(C(=O)O)c(=O)cnn1-c1ccc(Cl)cc1,Potency,[12],inactive
C[N+](C)(C)CC(O)CC(=O)[O-] (stereo not given),Potency,[12],inactive
CCN(Cc1cccc(S(=O)(=O)O)c1)c1ccc(C(=C2C=CC(=[N+](CC)Cc3cccc(S(=O)(=O)[O-])c3)C=C2)c2ccccc2)cc1,Potency,[1],"inconclusive: 15.4 µM [falling, partial curve, poor fit]"
same,Potency,[13],"inconclusive: 34.4 µM [cytotoxic, single point]"
O=C(O)c1cc(N=Nc2ccc(S(=O)(=O)Nc3ccccn3)cc2)ccc1O,Potency,[1],active: 12.3 µM and active: 19.5 µM and active: 16.9 µM
same,Potency,[13],"active: 11 µM and active: 21.9 µM and inconclusive: 21.3 µM [cytotoxic, partial curve]"
same,Potency,[3],"inconclusive: 13.3 µM [cytotoxic, partial curve]"
same,Potency,[4],"active: 27.4 µM and inconclusive: 27.3 µM [cytotoxic, partial curve]"
same,Potency,[14],"inconclusive: 27.4 µM [inhibitor, partial curve] and active: 27.3 µM and inconclusive: 29.8 µM [inhibitor, partial curve, poor fit]"
same,Potency,[7],"inconclusive: 13.3 µM [cytotoxic, partial curve]"
OCCCCl,Potency,[12],inactive
Nc1ccccc1S(=O)(=O)O,Potency,[12],inactive
C[C@]12CCC(=O)C=C1CC[C@H]1[C@@H]3CC[C@](O)(C(=O)CO)[C@@]3(C)C[C@H](O)[C@@]12F,Potency,[1],active: 9.52 µM
same,Potency,[13],active: 2.13 µM
same,Potency,[7],inactive
CCCCC(=O)OCC(=O)[C@H]1[C@H](C)C[C@H]2[C@@H]3C[C@H](F)C4=CC(=O)C=C[C@]4(C)[C@@]3(F)[C@@H](O)C[C@@]21C,Potency,[1],active: 4.77 µM
same,Potency,[13],active: 0.952 µM
same,Potency,[11],inactive
COC(=O)Cc1cccc2ccccc12,Potency,[1],inactive
same,Potency,[16],inconclusive: 48.6 µM [inhibitor]
CC(C)C(=O)O,Potency,[1],inactive
same,Potency,[7],inactive
CCCCC(=O)O[C@]1(C(=O)CO)CC[C@H]2[C@@H]3CCC4=CC(=O)CC[C@]4(C)[C@H]3[C@@H](O)C[C@@]21C,Potency,[1],"inconclusive: 23.9 µM [falling, single point]"
same,Potency,[13],active: 9.52 µM
